Test results: publication PMC12040169 (PLOS Biology, 2025)
This is one part of the list.

system: T1, C. trachomatis L2/434/Bu expressing GFP (CTL2-GFP); set-up: species or system HeLa; C. trachomatis total inclusion area by high-content imaging, normalised to DMSO; conditions: total inclusion area; 28.5 h, 10 µM; inhibitor
T1 construct: L2/434/Bu GFP intracellular growth in HeLa cells
How it was run: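 High-content images of fixed, Hoechst-stained infected cultures supply inclusion area and count (growth) plus nuclei number (viability), complementing bulk GFP/resorufin fluorescence. MIC determination is unchanged from the primary assay.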

First: CC(C)NC(=O)N1CCc2sccc2C1c1ccc(Cl)cc1 (stereo not drawn) [CBK018247]
Second: CC(C)c1nc(CC(=O)N2CCOC(c3ccc(F)cc3)C2)cs1 (stereo not drawn) [CBK305334]
The “% of control remaining” value of the first is higher: 74.3169 for the first, 29.1292 for the second.

Going from `O=C1Nc2ccc(-c3ccsc3)cc2C(=O)N2CC[C@H](NC(=O)N3CCOCC3)[C@@H]12` [CBK289338] to `Cc1ccc(C(=O)Nc2ccc3c(c2)OCO3)c(N2CCOCC2)n1` [CBK076377], the “% of control remaining” value falls from 123.459 to 112.086.

Compared with `O=C(c1cn(-c2cc(Nc3ccccc3)ncn2)cn1)N1CCOCC1` [CBK288610], `FC(F)(F)c1cc(-c2cc(N3CCN(c4ccccn4)CC3)ncn2)cc(C(F)(F)F)c1` [CBK091082] is lower in “% of control remaining” value: 108.415 for the first, 27.812 for the second.

Going from `COc1cc(CNc2nc(O)cc(C(F)(F)F)n2)cc(OC)c1OC` [CBK002390] to `COc1cc(-c2cncc(N(C)CCN(C)C)n2)cc(OC)c1OC` [CBK065312], the “% of control remaining” value rises from 95.5461 to 119.326.

First: CCCOc1ccc(Cc2nc(N(C)C)cc(N(C)C)n2)cc1 [CBK008318]
Second: CC(C)(C)NC(=O)COc1ccc(CNCc2ccccn2)cc1 [CBK268420C]
The “% of control remaining” value of the first is lower: 102.371 for the first, 110.214 for the second.

First: CS(=O)(=O)c1ccc(CN2C(=O)CC3(CCN(Cc4ccccc4)CC3)C2=O)cc1 [CBK144065T]
Second: CS(=O)(=O)N(CC(=O)Nc1ccc2ccccc2c1)c1ccc(Cl)cc1Cl [CBK267501]
The “% of control remaining” value of the first is lower: 69.1627 for the first, 95.5967 for the second.

Compared with `CCCC(=O)NC1CCN(C(=O)c2snnc2CC)CC1` [CBK297744], `Cc1ccc(-c2cc3cccnc3n2CCC(=O)NC2CC2)cn1` [CBK284964] is lower in “% of control remaining” value: 93.9641 for the first, 89.4642 for the second.

Compared with `COc1cc(C#N)ccc1OCc1cc(C)on1` [CBK002581], `COc1ccc(C(=O)Nc2c(C)noc2C)c(OC)n1` [CBK200300] is higher in “% of control remaining” value: 87.1474 for the first, 91.4988 for the second.

Going from `COc1ccccc1N(CC(=O)Nc1ccc2c(c1)oc1ccccc12)S(=O)(=O)c1ccccc1` [CBK264737] to `NC1OC(COC(=O)c2ccccc2)C(OC(=O)c2ccccc2)C1OC(=O)c1ccccc1` (stereo not drawn) [CBK010282], the “% of control remaining” value rises from 100.068 to 102.846.

Compared with `C#CCn1ncc2c3sc(C)cc3n(CC)c2c1=O` [CBK284225], `CCCCCc1nnc(NC(=O)c2cccs2)s1` [CBK058382] is lower in “% of control remaining” value: 95.6895 for the first, 75.6062 for the second.

First: Cn1cccc1-c1cc(C(=O)N/N=C/c2cccc(O)c2)[nH]n1 [CBK263397]
Second: O=C(Nc1cccc(-c2noc(-c3ccccn3)n2)c1)c1cccs1 [CBK270283]
The “% of control remaining” value of the first is lower: 88.0931 for the first, 101.687 for the second.

Going from `CC(C)c1ccc(/C=C/C(=O)NCCc2c[nH]cn2)cc1` [CBK149629] to `CSCCCNC(=O)c1ccc(-c2ccc(OC(F)(F)F)cc2)nc1` [CBK156216], the “% of control remaining” value falls from 101.368 to 84.3778.

Compared with `COC(=O)c1c(NC(=O)c2ccccc2)csc1C` [CBK026684], `COc1cc(OC)c(NC(=O)N2CCC(n3c(=O)[nH]c4ccccc43)CC2)cc1Cl` [CBK149851] is lower in “% of control remaining” value: 99.0218 for the first, 88.1296 for the second.

Compared with `CN1CCC(N(C2CC2)S(=O)(=O)c2ccc(NC(=O)C(C)(C)C)cc2)CC1` [CBK021115], `O=C(c1cccs1)N1CCCN(c2nccc(C(F)(F)F)n2)CC1` [CBK019390] is higher in “% of control remaining” value: 26.5315 for the first, 74.8654 for the second.

First: O=C(Cn1cccc2cc(C3CCNCC3)nc1-2)N1CCCC1 [CBK284680]
Second: O=[N+]([O-])c1cccc(-c2cc(N3CCC(N4CCCCC4)CC3)ncn2)c1 [CBK037710]
The “% of control remaining” value of the first is lower: 72.3999 for the first, 96.0524 for the second.

Compared with `NC(=O)CN1CCCC2(CCN(C(=O)Cc3c[nH]c4ccccc34)C2)C1` (stereo not drawn) [CBK132046], `CC(C)(C)c1cc(C(=O)Nc2ccccn2)n(Cc2ccc(Cl)cc2Cl)n1` [CBK107361] is lower in “% of control remaining” value: 97.6922 for the first, 84.4537 for the second.

First: O=C(CCc1cccnc1)Nc1cnc(-c2cccc(OC(F)(F)F)c2)c(-c2cccnc2)n1 [CBK036811]
Second: Fc1cccc(-c2nccnc2NCc2cccnc2)c1 [CBK037633]
The “% of control remaining” value of the first is lower: 75.5006 for the first, 87.2697 for the second.

First: Cc1nn(C)c2ncc(S(=O)(=O)NC(C)c3cccc(F)c3)cc12 (stereo not drawn) [CBK305948]
Second: Cc1cc(OC(C)C(=O)Nc2nnc[nH]2)ccc1Cl (stereo not drawn) [CBK269731]
The “% of control remaining” value of the first is lower: 77.2531 for the first, 88.5626 for the second.

Going from `CCN(C)c1c(C)nc2c(OCC(=O)N(C)C)cccn12` [CBK147316] to `CC(=O)CSc1nnc(-c2ccc(F)cc2)o1` [CBK068327], the “% of control remaining” value falls from 100.096 to 95.3353.

With `CN(Cc1cc(C(C)(C)C)c(O)c(C(C)(C)C)c1)Cc1cc(C(C)(C)C)c(O)c(C(C)(C)C)c1` [CBK261980] the “% of control remaining” value was 96.2927.
